# This is one part of the list.
# B1: chr2:175006660:175006661:-_ENSG00000138430_ENST00000344357|hu_mus|FALSE|FALSE (ssRNA)
# RNA: GGGAGUUCUACAGUCCGACGAUCUAGAAUGGGCCCAAUCAUCUCCUCGUCCUUCAGCUGGAGCUCCUCGUGAAUUAUCUCUAUGUCUCGGAUGGGAUCUACACUUCCUUCAACAUGCGUGAUAUCAUCGUCUUCAAAAGCACGCAACAGAGGAUUGAGCAUCA
# B2: chr3:197678047:197678048:+_ENSG00000182899_ENST00000448864|hu_mus|FALSE|FALSE (ssRNA)
# RNA: GGGAGUUCUACAGUCCGACGAUCUUAAGAAGAGCCGUGUGCUCUCUUUGGUUCCGGAGACCUCGCUUGUAGCCAGCAAAAAUGGCCUUGCACCACAGCCUUCCAGACAUACUUGCUGUUAGAAGUCCUGUUCCCAGCAGGCCUCAACAGAGGAUUGAGCAUCA
# B3: chr3:103546164:103546165:-_ENSMUSG00000008730_ENSMUST00000118317|mus_mus|FALSE|FALSE (ssRNA)
# RNA: GGGAGUUCUACAGUCCGACGAUCUGAGAACUGAGCUGAAGAUCCAAAAUGGAACGGGACAGAGGUGGCAGUUAAGGAGGAAAGCUGCGGCUUUGACUUGUCACUGUCGGUAGGGAGACUGAGAACACGAACGCAUUUACACAACAACAGAGGAUUGAGCAUCA
# B4: chrX:71549400:71549401:+_ENSMUSG00000019087_ENSMUST00000019231|mus_hu|mus_mus_mus_hu_False|1_68 (ssRNA)
# RNA: GGGAGUUCUACAGUCCGACGAUCGCAGUAGGAAGAGGGAAGCUCUUCAGUCCAGUGCGCUGCAGGGAGAAACAUGAACAACACGGACACCGUCCCACCCUCAACCCCCCCACUGGCACAGGGUCACACAAUCUGGGAAGUGAUCAACAGAGGAUUGAGCAUCA
# B5: chr4:81936313:81936314:-_ENSMUSG00000008575_ENSMUST00000064770|mus_mus|FALSE|FALSE (ssRNA)
# RNA: GGGAGUUCUACAGUCCGACGAUCCCCACAAAAAGUACACAAAGAACAUUAUCCUCCAACCGGGCACAAUAAAACCUUCACUAACAUUCCGGCCCAGUCUGGGGCCUAUCCCAGAGGCCCGAACUCCAGAAAUUAAGUAAGUAACAACAGAGGAUUGAGCAUCA
# B6: chr1:46159212:46159213:+_ENSG00000159596_ENST00000372025|hu_mus|hu_hu_hu_mus_True|68_88 (ssRNA)
# RNA: GGGAGUUCUACAGUCCGACGAUCUCUGAUCCCUCCCAAGAAAGCUAGGAAACUGGCUCCAUAAGCCAUCUGAGUAAAAGCUAGGACGGGGAUAUAAGACUUUGUUAUUACCAUGAGAAGUGGGGGAGCAGUAAAGGGGAUUAACAACAGAGGAUUGAGCAUCA
# B7: chr4:151706827:151706828:+_ENSMUSG00000028936_ENSMUST00000139685|mus_hu|FALSE|FALSE (ssRNA)
# RNA: GGGAGUUCUACAGUCCGACGAUCUUUGUAUCCCUGAAUCAUUGAGAAAAGCAACAGAUACAACUGACAGUCACACUUUUUAAAAUCAAACAGUCACUACCUUCAGCCCACACCUCCACACCCGCAUCUGCCUCCCCAAUGGCUCAACAGAGGAUUGAGCAUCA
# B8: chr11:4127340:4127341:+_ENSG00000167325_ENST00000300738|hu_mus|hu_hu_hu_mus_False|38_38 (ssRNA)
# RNA: GGGAGUUCUACAGUCCGACGAUCGGCAUAGUCAGGGUGCUUCGUGGUCAAGGUCGCGGCUGUCUCAGCAGCCAGGGUGUCCAGUUCCACUGUGGUGACCCCACUGUAUAGGCCUUGGAUUACUUUCAUGGUGAUCUGAGCAGGCAACAGAGGAUUGAGCAUCA
# B9: chrX:149583016:149583017:+_ENSMUSG00000041658_ENSMUST00000039720|mus_mus|FALSE|FALSE (ssRNA)
# RNA: GGGAGUUCUACAGUCCGACGAUCAUUUCCAACAGAGUCUACGAGAGAGUAGGUGCUCAAACUGCUAUUAAUUUGAAGACUAUGUAUACGGUCUAGUAUUGUUGCACCAAGACGACGUGUGUCUCUGGCAAUAUAAUUUGCAAACAACAGAGGAUUGAGCAUCA
# B10: 88753997_88754117_279_5pUTR_ENSMUSG00000068921_ENSMUST00000090938|mouse|control|control (ssRNA)
# RNA: GGGAGUUCUACAGUCCGACGAUCCGUCGCGGUGGCCCGUCCCAGGAGGUCCGCGCCUAGGUACCUUCGCUCGCUCUUCAAAACAUUCCGGUCACCGUGGCCAGCCUCGUCUGCGCGGGCGUGCCCGCUUCUCCCCGGCCCCAGCAACAGAGGAUUGAGCAUCA
# B11: 8245625_8248290_788_3pUTR_ENSG00000089818_ENST00000339754|human|control|control (ssRNA)
# RNA: GGGAGUUCUACAGUCCGACGAUCGUGCUGAAGUCUCCCCACAAGUCAUUGCUUACAGAAACUGGAGUUGGUGCUGGUGUCGUGACAGGAGCAGGAGAAUCCAAAUCUAAAAGGAUAUCUGCAUCACUGCCUCCAUGGUUAGAUCAACAGAGGAUUGAGCAUCA
# B12: chr9:53391639:53391640:-_ENSMUSG00000032047_ENSMUST00000034547|mus_hu|FALSE|FALSE (ssRNA)
# RNA: GGGAGUUCUACAGUCCGACGAUCCACUUUUUGGGGAUCAAUCUCCAACAUUUUAAUGUUUGCUAGUACAACCAGACUAAAGGCUUCAUUUACUUCCCACAUUGCAAUAUCUUCUUUUUUCAAUCCCACAUCUUUAAGAACCAUCAACAGAGGAUUGAGCAUCA
# B13: chr7:75932113:75932114:+_ENSG00000106211_ENST00000248553|hu_hu|hu_hu_hu_mus_False|28_38 (ssRNA)
# RNA: GGGAGUUCUACAGUCCGACGAUCCUGCGACCACUCAUCGGGCAACCGGGGCACCCCGAAAGCUUGAUCGAAGAGGCGGCUGUGUGCAGGGUACCAGCGGAAGGGGUCCCAGCUGGGCGGGCUCCGCAGCAGCGAGAAGGGCACCAACAGAGGAUUGAGCAUCA
# B14: chr1:66480114:66480115:+_ENSMUSG00000015222_ENSMUST00000024639|mus_hu|mus_mus_mus_hu_True|1_1 (ssRNA)
# RNA: GGGAGUUCUACAGUCCGACGAUCUGGCCUGUGGCGGAUGUUCUUCAGAGAGCCACAUUUGGAUGUCACAUGGCUUAGGUCUAUUUUCUUGGUAACAAUUUGUACCUGCCCCCCUUUAGGCUGGUAUUUGAUGUUGUCAGUUGACAACAGAGGAUUGAGCAUCA
# Target: T1, UNK ZnF1-3 (human, UniProt Q9C0B0 31-174)
# T1 sequence: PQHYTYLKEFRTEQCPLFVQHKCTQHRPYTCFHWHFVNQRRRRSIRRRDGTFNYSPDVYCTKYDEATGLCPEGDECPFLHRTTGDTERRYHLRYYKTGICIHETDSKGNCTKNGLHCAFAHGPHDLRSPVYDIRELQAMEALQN
# Assay: nsRBNS (natural sequence RNA bind-n-seq); RBNS binding buffer (assumed for nsRBNS): 25 mM Tris pH 7.5, 150 mM KCl, 3 mM MgCl2, 0.01% Triton X-100, 500 ug/ml BSA, 20 U/ml SUPERase-In, 4 C; UNK is unkempt and MSI1 is Musashi-1; names of the RNAs are library labels; protein concentration not given here; high values mean tight binding
row,Binder,binding signal
1,B1,0.801 enrichment R
2,B2,0.657 enrichment R
3,B3,1.23 enrichment R
4,B4,1.57 enrichment R
5,B5,1.6 enrichment R
6,B6,1.48 enrichment R
7,B7,1.91 enrichment R
8,B8,0.973 enrichment R
9,B9,0.764 enrichment R
10,B10,0.597 enrichment R
11,B11,1.09 enrichment R
12,B12,0.735 enrichment R
13,B13,1.26 enrichment R
14,B14,0.501 enrichment R

# — paper PMC12136788
